Test results taken from patent US12171806B2, “Therapeutic regimens and methods for lowering blood glucose and/or body weight using GLP-1R and GCGR balanced agonists” (priority 2021, dated 2024).

Molecular target: T1, glucagon (human, cloned into CHO cells) receptor (Homo sapiens, UniProt P47871)
T1 construct: host or cells: CHO cells
Assay: cAMP stimulation cellular assay (DiscoveRx LeadHunter), glucagon receptor
Format: cell-based

T1 sequence (P47871 26-477): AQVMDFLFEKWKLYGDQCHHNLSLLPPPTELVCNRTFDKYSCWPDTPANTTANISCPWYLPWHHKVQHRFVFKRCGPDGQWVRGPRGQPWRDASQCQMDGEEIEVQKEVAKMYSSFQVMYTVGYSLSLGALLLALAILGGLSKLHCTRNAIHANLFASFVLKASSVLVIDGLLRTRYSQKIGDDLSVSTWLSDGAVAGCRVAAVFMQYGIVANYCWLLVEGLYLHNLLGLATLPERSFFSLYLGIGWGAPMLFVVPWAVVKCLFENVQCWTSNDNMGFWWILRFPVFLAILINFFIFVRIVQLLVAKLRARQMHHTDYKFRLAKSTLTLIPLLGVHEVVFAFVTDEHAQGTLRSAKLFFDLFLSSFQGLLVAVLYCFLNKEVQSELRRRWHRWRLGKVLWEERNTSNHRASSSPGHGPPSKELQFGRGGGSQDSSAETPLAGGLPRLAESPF

CC[C@H](C)[C@H](NC(=O)[C@H](Cc1ccccc1)NC(=O)[C@H](CCC(=O)O)NC(=O)[C@@H]1CCCCNC(=O)CC[C@H](NC(=O)[C@H](CC(=O)O)NC(=O)[C@H](CC(C)C)NC(=O)[C@H](Cc2ccc(O)cc2)NC(=O)[C@H](CCCCN)NC(=O)[C@H](CO)NC(=O)[C@H](Cc2ccc(O)cc2)NC(=O)[C@H](CC(=O)O)NC(=O)[C@H](CO)NC(=O)[C@@H](NC(=O)[C@H](Cc2ccccc2)NC(=O)[C@@H](NC(=O)CNC(=O)[C@H](CCC(N)=O)NC(=O)C(C)(C)NC(=O)[C@@H](N)Cc2c[nH]cn2)[C@@H](C)O)[C@@H](C)O)C(=O)N[C@@H](CCC(N)=O)C(=O)N[C@@H](C)C(=O)N[C@@H](C)C(=O)N1)C(=O)N[C@@H](CCCCNC(=O)[C@H]1O[C@@H](OCCCCCCCCCCCCCCCCCC(=O)O)[C@H](O)[C@@H](O)[C@@H]1O)C(=O)N[C@@H](Cc1c[nH]c2ccccc12)C(=O)N[C@@H](CC(C)C)C(=O)N[C@@H](CC(C)C)C(=O)N[C@@H](CCC(N)=O)C(=O)N[C@H](C(N)=O)[C@@H](C)O [EU-A1872]
Ovalbumin vs. BSA-fold improv/worsen, GCG R: 30 fold
